Experimental findings from the RNAGym collection of RNA variant scans (doi:10.1093/nar/gkz1192) are described below.

Read counts are not given, so values of variants with three or more changes are uncertain.

First the molecules themselves.
B1: CPEB3 Ribozyme (parent)
chain: UAACAGGGGGCCACAGCAGAAGCGUUCACGUCGCAGCCCCUGUCAGAUUCUGGUGAAUCUGCGAAUUCUGCUGUAUAUCUC

Variants of B1 are the subject of this series. As to the kind of experiment: self-cleavage, relative activity (ratio to wild type); higher = more cleavage; in vitro, sequencing. The method, boiled down:
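After error-prone PCR and barcoding, CPEB3 ribozyme mutant libraries were transcribed with T7 RNA polymerase at 37°C for 5 hours, then given 15 min with DNase I before an EDTA stop, and they cleaved during both steps. Reverse transcription with template switching preceded Illumina sequencing. Relative activity divides a variant's cleaved/total read fraction by the unmutated ribozyme's. At least 5 reads were required per variant, and three batches were averaged.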
On to UAACAGGGGGCCACUGCAGAAGCGUUCACGUCGCAGCCCCUGACAGAUUCUGGUGAAUCUGCGAAUUCUGUUGUAUAUCUC [A15U U43A C71U], for which the self-cleavage worked out at 0.45.
Next, UAACAGGGGGCCACAACAGAAGCGUGCACGUCGCAGCCCCUGUCAGACUCUGGUGAAUCUGCGAAUUCUGCUGUAUAUCUC [G16A U26G U48C]: 0.13; UAACAGGGGGCCACUGCAGAAGCGUUCACGCCGCAGCCCCUGUCAAAUUCUGGUGAAUCAGCGAAAUCUGCUGUAUUUCUC [A15U U31C G46A U60A U66A A77U]: 0.16; UAACAGGGGGCCACUGCAGAAGCGUUCACGUCGCAGCCCCUGUCAGACCCUGGUGAAUCUGCGGAUUCUGCUGUAUAUCCC [A15U U48C U49C A64G U80C]: 0.06.
To UAACAGGGGGCCACAACAGUAGCGUUCACGUCGCAGCCCCUUUCAGAUUCUGGCGAAUCUGCGAAUUCUGCUGUAUAUCUC [G16A A20U G42U U54C] belongs 0.14; to UAACAGGGGGCCACUGCAGAAGCGUUCACGUCGCAGCCCCUGUCAGAUUCUGGUGAAUCUGCGAAUUCUGCGGUAAAUCUC [A15U U72G U76A], 0.81.
To UAACAGGGGGCCACAACAGAGGCGUUCACGUCGCAGCCCCUGUCAGAUUCUGGUGAAUCCGCGAAUUCUGCUGUAUAUCUC [G16A A21G U60C] belongs 0.05; to UAACAGGGGGCCACUGCAGAAGCGUUCACGUCGCAGCCCCCGUCAGAUUAUGGUGAAUCUGCGAAUUCUGCUGUAUAACUC [A15U U41C C50A U78A], 0.18.
Take UAACAGGGGGCCACUGCAGAAGCGUUCACGUCGCAGCCCCUGUCAGACUCUGGUGAAUCUGCGAAUUCUGUUGUAUAUCUC [A15U U48C C71U]: the self-cleavage was 0.13.
To UAACAGGGGGCCACUGCAGAAGCGUUCACGUCGCAGCCCCUGUCAGAAUCUGGUGAAUCUGCGAAUCCUGCUGUAUACCUC [A15U U48A U67C U78C] belongs 0.2.
To UAACAGGGGGCCACUGCAGAAGCGUUCACGUCGCAGCCCCUGUCAGAUACUGGUGAAUCUGCGAAUUCUGCCGUAUAUCUC [A15U U49A U72C] belongs 0.55; to UAACAGGGGGCCACAACAGAAGCGUUCACGUCGCAGCCCCUGUCAGAUUCUGGUGACUCUGCGAGUUCUGCUGUUUAUCUC [G16A A57C A65G A75U], 0.09; to UAACAGGGGGCCACAACAGAAGCGUUCACGUCGCAGCCCCUGUCAGAUUCUGGUGAAUCUGUGAAUUCUACUGUAUAUCUC [G16A C62U G70A], 0.15.
Next, UAACAGGGGGCCACACCAGAGGCGUUCACGGCGCAGCCCCUGUCAGAUUCUGGUGGAUCUGCGAAGUCUGCUGUAUAUCUC [G16C A21G U31G A56G U66G]: 0.03; UAACAGGGGGCCACUGCAGAAGCGUUCACGUCGCAGCCCCUGUCAGAUCCUGGUGAAUCCGCGAAUUCUGCUGUAUAUCUC [A15U U49C U60C]: 0.13; UAACAGGGGGCCACAACAGAAGCGUUCACGUCGCAGCCCCUGUCAGAUUCCGGCGAAUCUGCGGAUUCUGCUGUAUAUCUC [G16A U51C U54C A64G]: 0.1.
For UAACAGGGGGCCACUGCAGAAGCGUUCACGUCGCAGCCCCUGUCAGACUCGGGUGGAUCUGCGAAUUCUGCUGUAUAUCUC [A15U U48C U51G A56G], the self-cleavage worked out at 0.25.
With UAACAGGGGGCCACUGCAGAAGCGUUCACGUCGCAGCCCCUGUCAGAUUCUGGUGAAUCUGCGAAUUCUGCCUUAUCUCUC [A15U U72C G73U A77C], the self-cleavage is 0.78.
Turning to UAACAGGGGGCCACUGCAGAAGCGUUCACGUCGCAGCCCCUGCCAGACUCUGGUGAAUCUGCGAAUUCUGCUGUAUAUCUC [A15U U43C U48C], the self-cleavage is 0.39.
UAACAGGGGGCCACAACAGCAGCGUUCACGUCGCAGCCCCUGUCAGAUUCAGGUGAAUCUGCGAAUUCUGCUGUAUAUCUC [G16A A20C U51A]: the self-cleavage amounted to 0.23.
To UAACAGGGGGCCACUGCAGAAGCGUUCACGUCGCAGCCCCUGCCAGAUUCUGGUGAAUCUGCGAGUUCUGCUGUAUAUCAC [A15U U43C A65G U80A] belongs 0.18; to UAACAGGGGGCCACUGCAGAAGCGUUCACGCCGCAGCCCCUGCCAGAUUCUGGUGGAUCUGCGAAUUCUGCCGUAUAUCUC [A15U U31C U43C A56G U72C], 0.15.
Next, UAACAGGGGGCCACAACAGAAGCGUUCACGUCGCAGCCCCUAUCUGAUUCUGGUGAAUCUGCGAAUUCUGCUGUAUAUCUC [G16A G42A A45U]: 0.21; UAACAGGGGGCCACAACAGAAGCGUACACGUCGCAGCCCCUGUCAGAUUCUGGUGGAUCUGCGAAUUCUGCUGUAUAUCUC [G16A U26A A56G]: 0.16.
Next, UAACAGGGGGCCACUGCAGAAGCGUUCACGUCGCAGCCCCUGUCAGAUUCAGGUGAAACUGCGAACUCUGCUGUAUAACUC [A15U U51A U58A U66C U78A]: 0.21; UAACAGGGGGCCACAACAGAAGCGUUCAGGUCGCAGCCCCUGUCGGAUUCUGGUGAAUCUGCGAACUCUGCUGUAUAUCUC [G16A C29G A45G U66C]: 0.17.
Turning to UAACAGGGGGCCACAACAGAAGCGCUCACGUCGCAGCCCCUGUCAGAUUCUGGUGAAUCUGCGAGUUCUGCUGUAAAUCUC [G16A U25C A65G U76A], the self-cleavage came to 0.04.
With UAACAGGGGGCCACUGCAGAAGCGUUCACGUCGCAGCCCCUGUCAGAUUCUGGAGAAUCUGCAAACUCUGCUGUAUAUCUC [A15U U54A G63A U66C], the self-cleavage worked out at 0.27.
Turning to UAACAGGGGGCCACUGCAGAAGCGUUCACGUCGCAGCCCCUGACUGAUUCUGGUGAAUCUGCGAAUUCUGCUGUAUAUCUC [A15U U43A A45U], the self-cleavage stood at 0.33.
As for UAACAGGGGGCCACAACAGAAGCGUUCACGUCGCAGCCCCUGUCGGAUUCUGGUGAAUCUGCGAAUUCCGCUGUAUAUCUC [G16A A45G U69C], the self-cleavage turned out to be 0.12.
To UAACAGGGGGCCACAACAGAAGCGUACACGUCGCAGCCCCUGUCAGAUUCUGGUGAAUCCGCGAAUUCUGCUGUGUAUCUC [G16A U26A U60C A75G] belongs 0.08; to UAACAGGGGGCCACUGCAGAAGCGUUCACGUCGCAGCCCCUGUCAGAUUCUGGUGAAUCUGCGAAUUCGGCUGUAUAUCCC [A15U U69G U80C], 0.23; to UAACAGGGGGCCACAACAGAAGCGUUCACGUCGCAGCCCCUGUCAGAUUCAGGUGAAUCUGCGAAUUCUGCUGUAUAUCAC [G16A U51A U80A], 0.45.
Next, UAACAGGGGGCCACUGCAGAAGCGUUCACGCCGCAGCCCCUGUCAGAUUCUGGUGAAUCCGCGAAUUCUGCUGUAUAUCUU [A15U U31C U60C C81U]: 0.15.
